Laboratory results as given in the RNAGym collection of RNA variant scans (doi:10.1073/pnas.2313332121).
Variants at the background level are over-represented here.

B1: TPR 5TU (parent)
chain: GGAUCUUCUCGAUCUAACAAAAAAGACAAAUCUGCCACAAAGCUUGAGAGCAUCUUCGGAUGCAGAGGCGGCAGCCUUCGGUGGCGCGAUAGCGCCAACGUUCUCAACUAUGACACGCAAAACGCGUGCUCCGUUGAAUGGAGUUUAUCAUG

Variants of: B1
Assay: polymerase ribozyme fitness, log enrichment relative to wild type (log ratio); higher = more active; in vitro selection for triplet polymerase activity
In short: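 Both subunits of a heterodimeric triplet polymerase ribozyme were given their own mutant library, built by PCR and transcribed. Each library was annealed with a biotinylated primer, the partner subunit and triplets, incubated frozen at −7 °C, and its extended constructs gel-excised, captured on streptavidin beads and amplified by RT-PCR, all in one round done in triplicate. Fitness is the logarithm of genotype enrichment relative to wild-type enrichment, with replicates averaged by inverse-variance weighting. That logarithm is base 2, and Illumina-sequenced genotypes needed ≥10 input reads and ≥1 read per output.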

| Variant | polymerase ribozyme fitness (log ratio) |
| --- | --- |
| U13G A21U C54G G58A G84A C149A | ≤ -4.2 |
| U13G A23G U45G G86U G88U C108U | ≤ -4.2 |
| U13G A23U C87G | ≤ -4.2 |
| U13G A24U C85A C108A G140C U146G A147U | ≤ -4.2 |
| U13G A28C A60G G84U G124U G133A A142C | ≤ -4.2 |
| U13G A28G U53A A64U G141U U145G G152A | ≤ -4.2 |
| U13G A28U A37C A41G A73U G86C G136C | ≤ -4.2 |
| U13G A29U A52U C87G A89G C149G | ≤ -4.2 |
| U13G A29U C51A U77C C79U G92U C99U A137U G143U | ≤ -4.2 |
| U13G A30U U53A A60C C76G C95G C99U G141A | ≤ -4.2 |
| U13G A37U A64G G68C A97G G136U C149U | ≤ -4.2 |
| U13G A40G G88A C103A C123G A138C | ≤ -4.2 |
| U13G A41C U55G G94C C116A G143U U151G | ≤ -4.2 |
| U13G A41G C54G G81A C96G C118U | ≤ -4.2 |
| U13G A47G U55A C87U C96U U139G | ≤ -4.2 |
| U13G A52G | -1.06 |
| U13G A89U C95U C99G C149U | ≤ -4.2 |
| U13G C14G U53C U55A C96U C114U G152U | ≤ -4.2 |
| U13G C18G C54U G59C C99U U102G | ≤ -4.2 |
| U13G C27G G42C C95A A110U A150U G152U | ≤ -4.2 |
| U13G C27U G83U C132G | ≤ -4.2 |

| Variant | polymerase ribozyme fitness (log ratio) |
| --- | --- |
| U13G C36U A47U G84A A122G A138U | ≤ -4.2 |
| U13G C36U A107G U145C | ≤ -4.2 |
| U13G C43U G136U | ≤ -4.2 |
| U13G C54G C95U U104G U130G U139A | ≤ -4.2 |
| U13G C63U U104G A106U | ≤ -4.2 |
| U13G C75U C95U A97C G112A A113G | ≤ -4.2 |
| U13G C85U | -1.63 |
| U13G C85U C99U G128C C132U | ≤ -4.2 |
| U13G G25C A30C C87G U101C A113U A147G | ≤ -4.2 |
| U13G G25U A28C C85G G141A | ≤ -4.2 |
| U13G G46A A47C G86U | ≤ -4.2 |
| U13G G48U C96A A110G C118A | ≤ -4.2 |
| U13G G58C A60G G88C A107G G143A | ≤ -4.2 |
| U13G G62C C72U A107G A113U | ≤ -4.2 |
| U13G G65C G83A | ≤ -4.2 |
| U13G G68C G84A | ≤ -4.2 |
| U13G G81U G86A C105U | -3.74 |
| U13G G83U C105U G117C U148A | ≤ -4.2 |
| U13G U31G G46U C95U G128A | ≤ -4.2 |
| U13G U33A C99U C118G A120U U134C | ≤ -4.2 |
| U13G U44A A49C G88C C116A | ≤ -4.2 |

| Variant | polymerase ribozyme fitness (log ratio) |
| --- | --- |
| U13G U44C G86A A91C U139C | ≤ -4.2 |
| U13G U45A U55A C87A U146A | ≤ -4.2 |
| U13G U53G U61A | ≤ -4.2 |
| U13G U55G G84A C105G U111C C123A G140U | ≤ -4.2 |
| U13G U56A | -0.285 |
| U13G U56A C76G A91U C93U | ≤ -4.2 |
| U13G U56G C75G | ≤ -4.2 |
| C14A A16C A28G A60G C79G A91G U109A | ≤ -4.2 |
| C14A A16U A30G U56A A66C A89U | ≤ -4.2 |
| C14A A16U G83A C93G C95U A98U C108G | ≤ -4.2 |
| C14A A17G G50C G83U U104A A115G A137C | ≤ -4.2 |
| C14A A17U A40U C57G G84U C96A A121C | ≤ -4.2 |
| C14A A19C A47U G59A A66G A73U G94C U104A U127G | ≤ -4.2 |
| C14A A19U U56G G86U C116G C125U G133A G143C | ≤ -4.2 |
| C14A A20C C96U | -1.32 |
| C14A A20U A24C C76U U139A U151G | ≤ -4.2 |
| C14A A21C C27A C99U U145G | ≤ -4.2 |
| C14A A21U G50A G86U | ≤ -4.2 |
| C14A A22G C76U C85U U90G | ≤ -4.2 |
| C14A A23C A66U C93A G128U U151A | ≤ -4.2 |
| C14A A23U G74A C85G A106U G140C | ≤ -4.2 |

| Variant | polymerase ribozyme fitness (log ratio) |
| --- | --- |
| C14A A26C C32G A41G G88U C95G | ≤ -4.2 |
| C14A A28U G68U G92C C125U A137C A150C | ≤ -4.2 |
| C14A A29C C96G A150U | ≤ -4.2 |
| C14A A30U A49U U56A G62A C69U U139C U151G | ≤ -4.2 |
| C14A A30U C63U C85U A89C A91C G141C U151A | ≤ -4.2 |
| C14A A37U A52G G83A G84A A115U | ≤ -4.2 |
| C14A A40C G92C G143A | ≤ -4.2 |
| C14A A41U C76G C87A G92C U144G | ≤ -4.2 |
| C14A A49U A52C C69G G71A A73U G84A | ≤ -4.2 |
| C14A A52G U55G C99U | -3.48 |
| C14A A89U G92C U109A G140C | ≤ -4.2 |
| C14A A91C U104G | ≤ -4.2 |
| C14A C27G A91C A115G | ≤ -4.2 |
| C14A C36U U45C C87U C105A G133U | ≤ -4.2 |
| C14A C38U | -1.31 |
| C14A C43U U45A G68C C85G U102G G133U | ≤ -4.2 |
| C14A C57G G59A G133C U144G | ≤ -4.2 |
| C14A C75U | -1.84 |
| C14A C76A A89C U90G C95U A107U | ≤ -4.2 |
| C14A C85G U135A | ≤ -4.2 |
